Test results from the supplement of paper PMC10037445.
Values joined by “and” are separate entries in the source; they are usually repeats but may differ in a detail not shown here. Equal values may be shown once. Over roughly 2,900 compounds, “NF-kB SEAP reporter activity, fold change vs agonist alone” has its median near 0.99; the highest 2% begin near 2.6. The list shows a part of the results.

Assays:
RAW-Dual [1] = test: NF-kB SEAP reporter activity, fold change vs agonist alone; cytotoxicity flag (confluency mask): not cytotoxic; higher = enhanced NF-kB activity
Summary of the method: (§1)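 Library stock was pin-tooled at 50 nL into 384-well plates of RAW-Dual macrophages (50,000 cells/well, DMEM), followed 1 h later by a PRR agonist, and the cells were kept at 37 °C, 5% CO2. Supernatant collected after 20 hours was read for IRF by QuantiLuc luminescence and for NF-κB by QuantiBlue absorbance at 620 nm. Reporter activity is fold change over agonist-alone wells, and a well counted as cytotoxic when its IncuCyte confluency was below 70% of agonist controls in both mask sets.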

RAW-Dual [2] = test: NF-kB SEAP reporter activity, fold change vs agonist alone; higher = enhanced NF-kB activity; conditions: library stock concentration (final ~1000-fold dilution): 10 mM
Summary of the method: as §1

RAW-Dual [3] = test: NF-kB SEAP reporter activity, fold change vs agonist alone; cytotoxicity flag (confluency mask): cytotoxic (confluency <70% of control); higher = enhanced NF-kB activity
Summary of the method: as §1

[4] = agonist: ODN 1826 (TLR9) 0.5 ug/mL
[5] = agonist: Pam2CSK4 (TLR2/6) 0.1 ug/mL
[6] = agonist: Pam3CSK4 (TLR2/1) 0.1 ug/mL
[7] = cytotoxicity flag (confluency mask): not cytotoxic, agonist: Imiquimod (TLR7) […]
[8] = cytotoxicity flag (confluency mask): not cytotoxic, agonist: MPLA (TLR4) […]
[9] = cytotoxicity flag (confluency mask): cytotoxic (confluency <70% of control), agonist: MPLA (TLR4) […]

With `O=C(OC1CC2CCC(C1)[N+]21CCCC1)C(O)(c1ccccc1)c1ccccc1` (configuration not stated) (library stock concentration (final ~1000-fold dilution): 10 mM) the “NF-kB SEAP reporter activity” value (RAW-Dual [1]; agonist: LPS (TLR4) 0.1 ug/mL) was 1.21, the “NF-kB SEAP reporter activity” value (RAW-Dual [1]; [4]) was 0.958 and the “NF-kB SEAP reporter activity” value (RAW-Dual [1]; [5]) was 0.978. For the same compound, the “NF-kB SEAP reporter activity” value (RAW-Dual [1]; [6]) was 1.16.
`O=C(O)CC[N+](=O)[O-]` was tested, and the “NF-kB SEAP reporter activity” value (RAW-Dual [2]; [7]) was 1.04 and the “NF-kB SEAP reporter activity” value (RAW-Dual [2]; [8]) was 0.708.
`O=C(O)CC[N+](=O)[O-]` (library stock concentration (final ~1000-fold dilution): 10 mM) was tested, and the “NF-kB SEAP reporter activity” value (RAW-Dual [1]; agonist: LPS (TLR4) 0.1 ug/mL) was 1.3, the “NF-kB SEAP reporter activity” value (RAW-Dual [1]; [4]) was 1.11 and the “NF-kB SEAP reporter activity” value (RAW-Dual [1]; [5]) was 1.05. For the same compound, the “NF-kB SEAP reporter activity” value (RAW-Dual [1]; [6]) was 1.09.
With `CC(C)=CCCC(C)(O)C1CCC2(C)C1C(O)CC1C3(C)CCC(OC4OC(CO)C(O)C(O)C4O)C(C)(C)C3CCC12C` (configuration not stated) the “NF-kB SEAP reporter activity” value (RAW-Dual [2]; [7]) was 0.783 and the “NF-kB SEAP reporter activity” value (RAW-Dual [2]; [8]) was 0.974.
`CC(C)=CCCC(C)(O)C1CCC2(C)C1C(O)CC1C3(C)CCC(OC4OC(CO)C(O)C(O)C4O)C(C)(C)C3CCC12C` (configuration not stated) (library stock concentration (final ~1000-fold dilution): 10 mM) was tested, and the “NF-kB SEAP reporter activity” value (RAW-Dual [1]; agonist: LPS (TLR4) 0.1 ug/mL) was 1.27, the “NF-kB SEAP reporter activity” value (RAW-Dual [1]; [4]) was 0.812 and the “NF-kB SEAP reporter activity” value (RAW-Dual [1]; [5]) was 0.791. For the same compound, the “NF-kB SEAP reporter activity” value (RAW-Dual [1]; [6]) was 0.964.
For `COc1cc2c(cc1OC)C(Cc1ccc(O)c(Oc3cc4c(cc3OC)CCN(C)C4Cc3ccc(O)cc3)c1)N(C)CC2.[O-][Cl+3]([O-])([O-])O` (configuration not stated) (library stock concentration (final ~1000-fold dilution): 10 mM), the “NF-kB SEAP reporter activity” value (RAW-Dual [1]; agonist: LPS (TLR4) 0.1 ug/mL) was 1.1, the “NF-kB SEAP reporter activity” value (RAW-Dual [1]; [4]) was 0.159 and the “NF-kB SEAP reporter activity” value (RAW-Dual [1]; [5]) was 0.87. The “NF-kB SEAP reporter activity” value (RAW-Dual [1]; [6]) was 1.03.
With `COc1cc2c(cc1OC)C(Cc1ccc(O)c(Oc3cc4c(cc3OC)CCN(C)C4Cc3ccc(O)cc3)c1)N(C)CC2.[O-][Cl+3]([O-])([O-])O` (configuration not stated) the “NF-kB SEAP reporter activity” value (RAW-Dual [2]; [7]) was 0.975 and the “NF-kB SEAP reporter activity” value (RAW-Dual [2]; [8]) was 1.3.
`Nc1ncnc2c1ccn2C1OC(CO)C(O)C1O` (configuration not stated) was tested, and the “NF-kB SEAP reporter activity” value (RAW-Dual [2]; cytotoxicity flag (confluency mask): cytotoxic (confluency <70% of control), agonist: Imiquimod (TLR7) […]) was 0.147 and the “NF-kB SEAP reporter activity” value (RAW-Dual [2]; [9]) was 0.247.
In the case of `Nc1ncnc2c1ccn2C1OC(CO)C(O)C1O` (configuration not stated) (library stock concentration (final ~1000-fold dilution): 10 mM), the “NF-kB SEAP reporter activity” value (RAW-Dual [3]; agonist: LPS (TLR4) 0.1 ug/mL) is reported as 0.531, the “NF-kB SEAP reporter activity” value (RAW-Dual [3]; [4]) is reported as 0.19 and the “NF-kB SEAP reporter activity” value (RAW-Dual [3]; [5]) is reported as 0.0753. For the same compound, the “NF-kB SEAP reporter activity” value (RAW-Dual [3]; [6]) was 0.156.
For `O=C(O)CNC(=O)C1C(=O)N(C2CCCCC2)C(=O)N(C2CCCCC2)C1=O`, the “NF-kB SEAP reporter activity” value (RAW-Dual [2]; [7]) was 0.959 and the “NF-kB SEAP reporter activity” value (RAW-Dual [2]; [8]) was 0.981.
In the case of `O=C(O)CNC(=O)C1C(=O)N(C2CCCCC2)C(=O)N(C2CCCCC2)C1=O` (library stock concentration (final ~1000-fold dilution): 10 mM), the “NF-kB SEAP reporter activity” value (RAW-Dual [1]; agonist: LPS (TLR4) 0.1 ug/mL) is reported as 0.958, the “NF-kB SEAP reporter activity” value (RAW-Dual [1]; [4]) is reported as 0.905 and the “NF-kB SEAP reporter activity” value (RAW-Dual [1]; [5]) is reported as 0.917. For the same compound, the “NF-kB SEAP reporter activity” value (RAW-Dual [1]; [6]) was 0.971.
For `Cl.NC1CC1c1ccccc1` (configuration not stated) (library stock concentration (final ~1000-fold dilution): 10 mM), the “NF-kB SEAP reporter activity” value (RAW-Dual [1]; agonist: LPS (TLR4) 0.1 ug/mL) was 1.14, the “NF-kB SEAP reporter activity” value (RAW-Dual [1]; [4]) was 1.04 and the “NF-kB SEAP reporter activity” value (RAW-Dual [1]; [5]) was 0.996. For the same compound, the “NF-kB SEAP reporter activity” value (RAW-Dual [1]; [6]) was 1.03.
In the case of `Cl.NC1CC1c1ccccc1` (configuration not stated), the “NF-kB SEAP reporter activity” value (RAW-Dual [2]; [7]) is reported as 0.918 and the “NF-kB SEAP reporter activity” value (RAW-Dual [2]; [8]) is reported as 1.07.
`COc1cc(C)[nH]c(=O)c1CNC(=O)c1c(C)n(C(C)C2CCOCC2)c2ccccc12` (configuration not stated) was tested, and the “NF-kB SEAP reporter activity” value (RAW-Dual [2]; [7]) was 0.902 and the “NF-kB SEAP reporter activity” value (RAW-Dual [2]; [8]) was 1.02.
`COc1cc(C)[nH]c(=O)c1CNC(=O)c1c(C)n(C(C)C2CCOCC2)c2ccccc12` (configuration not stated) (library stock concentration (final ~1000-fold dilution): 10 mM) was tested, and the “NF-kB SEAP reporter activity” value (RAW-Dual [1]; agonist: LPS (TLR4) 0.1 ug/mL) was 1.26, the “NF-kB SEAP reporter activity” value (RAW-Dual [1]; [4]) was 1.05 and the “NF-kB SEAP reporter activity” value (RAW-Dual [1]; [5]) was 0.992. The “NF-kB SEAP reporter activity” value (RAW-Dual [1]; [6]) was 0.786.
In the case of `O=C1C=C2C=CC3CC2(O1)C1CCCCN31` (configuration not stated) (library stock concentration (final ~1000-fold dilution): 10 mM), the “NF-kB SEAP reporter activity” value (RAW-Dual [1]; agonist: LPS (TLR4) 0.1 ug/mL) is reported as 0.776, the “NF-kB SEAP reporter activity” value (RAW-Dual [1]; [4]) is reported as 1.11 and the “NF-kB SEAP reporter activity” value (RAW-Dual [1]; [5]) is reported as 1.47. For the same compound, the “NF-kB SEAP reporter activity” value (RAW-Dual [1]; [6]) was 0.954.
With `O=C1C=C2C=CC3CC2(O1)C1CCCCN31` (configuration not stated) the “NF-kB SEAP reporter activity” value (RAW-Dual [2]; [7]) was 0.985 and the “NF-kB SEAP reporter activity” value (RAW-Dual [2]; [8]) was 0.718.
`CC(C)(C)c1cc(C=C(C#N)C#N)cc(C(C)(C)C)c1O` (library stock concentration (final ~1000-fold dilution): 10 mM) was tested, and the “NF-kB SEAP reporter activity” value (RAW-Dual [3]; agonist: LPS (TLR4) 0.1 ug/mL) was 5.32.
`CC(C)(C)c1cc(C=C(C#N)C#N)cc(C(C)(C)C)c1O` was tested, and the “NF-kB SEAP reporter activity” value (RAW-Dual [2]; [9]) was 2.56.
With `O=C(O)c1nn(Cc2ccc(Cl)cc2Cl)c2ccccc12` (library stock concentration (final ~1000-fold dilution): 10 mM) the “NF-kB SEAP reporter activity” value (RAW-Dual [1]; agonist: LPS (TLR4) 0.1 ug/mL) was 1.29, the “NF-kB SEAP reporter activity” value (RAW-Dual [1]; [4]) was 1 and the “NF-kB SEAP reporter activity” value (RAW-Dual [1]; [5]) was 1.06. The “NF-kB SEAP reporter activity” value (RAW-Dual [1]; [6]) was 1.04.
With `O=C(O)c1nn(Cc2ccc(Cl)cc2Cl)c2ccccc12` the “NF-kB SEAP reporter activity” value (RAW-Dual [2]; [7]) was 0.825 and the “NF-kB SEAP reporter activity” value (RAW-Dual [2]; [8]) was 0.865.
For `Cc1cc(C(C#N)c2ccc(Cl)cc2)c(Cl)cc1NC(=O)c1cc(I)cc(I)c1O` (configuration not stated), the “NF-kB SEAP reporter activity” value (RAW-Dual [2]; [7]) was 1.03 and the “NF-kB SEAP reporter activity” value (RAW-Dual [2]; [8]) was 0.776.
In the case of `Cc1cc(C(C#N)c2ccc(Cl)cc2)c(Cl)cc1NC(=O)c1cc(I)cc(I)c1O` (configuration not stated) (library stock concentration (final ~1000-fold dilution): 10 mM), the “NF-kB SEAP reporter activity” value (RAW-Dual [1]; agonist: LPS (TLR4) 0.1 ug/mL) is reported as 0.797, the “NF-kB SEAP reporter activity” value (RAW-Dual [1]; [4]) is reported as 0.822 and the “NF-kB SEAP reporter activity” value (RAW-Dual [1]; [5]) is reported as 0.978. For the same compound, the “NF-kB SEAP reporter activity” value (RAW-Dual [1]; [6]) was 0.62.
With `CC(=O)O.Cc1cc2c(C(C)C)c(O)c(O)c(C=O)c2c(O)c1-c1c(C)cc2c(C(C)C)c(O)c(O)c(C=O)c2c1O` (library stock concentration (final ~1000-fold dilution): 10 mM) the “NF-kB SEAP reporter activity” value (RAW-Dual [1]; agonist: LPS (TLR4) 0.1 ug/mL) was 3.69, the “NF-kB SEAP reporter activity” value (RAW-Dual [1]; [4]) was 0.908 and the “NF-kB SEAP reporter activity” value (RAW-Dual [1]; [5]) was 1.15. For the same compound, the “NF-kB SEAP reporter activity” value (RAW-Dual [1]; [6]) was 1.2.
With `CC(=O)O.Cc1cc2c(C(C)C)c(O)c(O)c(C=O)c2c(O)c1-c1c(C)cc2c(C(C)C)c(O)c(O)c(C=O)c2c1O` the “NF-kB SEAP reporter activity” value (RAW-Dual [2]; [7]) was 0.906 and the “NF-kB SEAP reporter activity” value (RAW-Dual [2]; [8]) was 0.963.
`O=c1ccc2cc3ccoc3c(O)c2o1` (library stock concentration (final ~1000-fold dilution): 10 mM) was tested, and the “NF-kB SEAP reporter activity” value (RAW-Dual [1]; agonist: LPS (TLR4) 0.1 ug/mL) was 1.2 and 1.01, the “NF-kB SEAP reporter activity” value (RAW-Dual [1]; [4]) was 1.06 and 0.912 and the “NF-kB SEAP reporter activity” value (RAW-Dual [1]; [5]) was 0.937 and 1.01. The “NF-kB SEAP reporter activity” value (RAW-Dual [1]; [6]) was 1.12 and 1.05.
In the case of `COc1ccc(C(CN(C)C)C2(O)CCCCC2)cc1.Cl` (configuration not stated), the “NF-kB SEAP reporter activity” value (RAW-Dual [2]; [7]) is reported as 1.11 and the “NF-kB SEAP reporter activity” value (RAW-Dual [2]; [8]) is reported as 1.04.
In the case of `COc1ccc(C(CN(C)C)C2(O)CCCCC2)cc1.Cl` (configuration not stated) (library stock concentration (final ~1000-fold dilution): 10 mM), the “NF-kB SEAP reporter activity” value (RAW-Dual [1]; agonist: LPS (TLR4) 0.1 ug/mL) is reported as 1.56, the “NF-kB SEAP reporter activity” value (RAW-Dual [1]; [4]) is reported as 1.09 and the “NF-kB SEAP reporter activity” value (RAW-Dual [1]; [5]) is reported as 1.02. For the same compound, the “NF-kB SEAP reporter activity” value (RAW-Dual [1]; [6]) was 1.25.
